Assay results reported in PubChem BioAssay AID602310 (National Center for Advancing Translational Sciences (NCATS), 2012).
About 310 (0.076%) of roughly 410,000 compounds were called active. The shares of active, inactive and inconclusive entries below differ from those in the screen. The call rests on the fitted dose curve; in most records, active means well fitted curve in the direction sought with a large enough effect; inconclusive means small, poorly fitted or top-dose-only effect; inactive means flat fitted curve, though single readings scatter. Where the call is inconclusive, the potency comes from a doubtful curve fit.

molecular target: DNA dC->dU-editing enzyme APOBEC-3G (Homo sapiens) (UniProt Q9HC16); assay: qHTS for Inhibitors of Vif-A3G Interactions: qHTS; conditions: HeLa A3G-eYFP + Vif (tagged APOBEC3G with the HIV-1 protein that degrades it), YFP fluorescence, overnight; series mostly up to 46.1 µM; activity, negative = active: at the top concentration; further: nearly all actives have a fitted effect of over 60% in size;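 on activity, negative = active: hits raise eYFP signal because A3G escapes Vif-driven loss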
Sequence of UniProt Q9HC16 (Q9HC16 whole entry, looked up): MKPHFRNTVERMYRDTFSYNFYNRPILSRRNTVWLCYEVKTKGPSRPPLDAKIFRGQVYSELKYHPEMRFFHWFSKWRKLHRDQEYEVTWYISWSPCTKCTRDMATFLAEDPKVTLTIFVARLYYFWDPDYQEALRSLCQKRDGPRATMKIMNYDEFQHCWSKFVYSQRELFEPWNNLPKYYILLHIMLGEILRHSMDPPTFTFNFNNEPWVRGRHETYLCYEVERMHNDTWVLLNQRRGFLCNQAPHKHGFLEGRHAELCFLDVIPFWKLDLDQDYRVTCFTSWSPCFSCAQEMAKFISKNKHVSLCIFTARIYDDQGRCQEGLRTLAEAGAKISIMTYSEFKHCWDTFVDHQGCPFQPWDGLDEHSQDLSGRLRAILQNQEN
In short: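 HeLa cells stably expressing Vif and C-terminally eYFP-tagged A3G, seeded overnight at 37 deg C, then exposed to compound by pintool overnight at 37 deg C. Rise in yellow fluorescence (Ex 488/Em 500-530, Acumen) marks blocked Vif-driven A3G degradation.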
On the % scale 0 is the no-effect control and ±100 the full control effect; potency means the concentration at half of the fitted maximal effect; tags describe the fitted curve by direction and shape.

| Compound | Potency | activity, negative = active |
| --- | --- | --- |
| Cc1ccc2[nH]c3c(N4CCc5ccccc5C4)ncnc3c2c1 | inconclusive: 35.5 µM [inhibitor, single point] |  |
| C(=N\NC1=Nc2cccc3cccc1c23)/c1cccnc1 | inconclusive: 35.5 µM [inhibitor, single point] |  |
| COC(=O)C1=C(C)NC(C)=C(C(=O)OC)C1c1cc2ccc(C)cc2[nH]c1=O | inconclusive: 28.2 µM [inhibitor, single point] |  |
| Cc1cc(N(C)C)cc(C)c1/C=C/c1ccnc2ccccc12 | inconclusive: 22.4 µM [inhibitor, single point] |  |
| CCOc1cccc(C2NC(=S)NC(C)=C2C(=O)Nc2ccccc2)c1 (stereo unspecified) | inconclusive: 14.1 µM [inhibitor, single point] |  |
| CCN1CCN(CCCNC(=O)c2cc3c(s2)-c2c(C)cccc2OC3)CC1 | inconclusive: 25.1 µM [inhibitor, single point] |  |
| Cc1ccc(-c2csc(NC3OC(=O)c4ccccc43)n2)cc1 (stereo unspecified) | inconclusive: 10 µM [inhibitor, partial curve] |  |
| CN1CCN(CCC(=O)N/N=C/C=C2\N(C)c3ccccc3C2(C)C)CC1 | inconclusive: 25.1 µM [inhibitor, single point] |  |
| COc1ccc(NC(=O)CN(c2ccc([N+](=O)[O-])cc2)S(=O)(=O)c2ccccc2)cc1 | inconclusive: 11.2 µM [inhibitor, partial curve, poor fit] |  |
| CCCSc1nc2sc3c(c2c(=O)[nH]1)CCN(Cc1ccccc1)C3 | inconclusive: 20 µM [inhibitor, single point] |  |
| COc1ccccc1C1C=C(c2ccccc2)Nc2nnnn21 (stereo unspecified) | inconclusive: 6.31 µM [inhibitor, full curve, poor fit] |  |
| Cc1cccc(/C=C2/Sc3ccc(C(=O)NCCN4CCCC4)cc3NC2=O)c1 | inconclusive: 35.5 µM [inhibitor, single point] |  |
| COc1cc(C2C3=C(COC3=O)Oc3cc4c(cc32)OCO4)ccc1OC(C)=O (stereo unspecified) | inconclusive: 1.41 µM [inhibitor, full curve] |  |
| COc1ccc2c(c1)c(C(=O)N/N=C/c1ccc(Cl)cc1)c(C)n2C | inconclusive: 11.2 µM [inhibitor, partial curve] |  |
| CCCCN(C(=O)CSc1nn(-c2ccc(F)cc2)c(=S)s1)c1c(N)n(CCCC)c(=O)[nH]c1=O |  | inactive: -15.6% |
| CSc1nc(N(C)NC(=O)c2ccccc2)c2ccccc2n1 | inconclusive: 1.12 µM [inhibitor, full curve, poor fit] |  |
| CC(NC(=O)c1ccc(Nc2nc3ccccc3n3nnnc23)cc1)c1ccccc1 (stereo unspecified) | inconclusive: 7.08 µM [inhibitor, partial curve, poor fit] |  |
| Cc1cccc(C(=O)Nc2ccc(C(=O)N/N=C/c3ccc4c(c3)OCO4)cc2)c1 | inconclusive: 35.5 µM [inhibitor, single point] |  |
| NC(=O)CC(NC(=O)c1ccc(Br)cc1)c1ccc(NC2CCCCC2)c([N+](=O)[O-])c1 (stereo unspecified) | inconclusive: 22.4 µM [inhibitor, single point] |  |
| CCCCOc1ccc(C(=O)CCN2CCCCC2)cc1 |  | inactive: -11.6% |
| Cc1onc(-c2c(F)cccc2Cl)c1C(=O)N1CCCc2ccccc21 | inconclusive: 11.2 µM [inhibitor, single point] |  |
| Cc1ccc(NC(=O)C2CCN(S(=O)(=O)c3ccc(Cl)c(C(F)(F)F)c3)CC2)nc1 | inconclusive: 6.31 µM [inhibitor, full curve, poor fit] |  |

| Compound | Potency | activity, negative = active |
| --- | --- | --- |
| CCN1C(=O)/C(=C/c2ccc(C)s2)SC1=Nc1ccc(OC)cc1 | inconclusive: 35.5 µM [inhibitor, single point] |  |
| COc1ccccc1Nc1nn2c(=O)c3ccc(C(=O)N4CCCCC4)cc3nc2s1 | inconclusive: 20 µM [inhibitor, single point] |  |
| Cc1c(C)n(Cc2ccccc2)c2ccc(C(=O)NCc3ccco3)cc12 | inconclusive: 6.31 µM [inhibitor, full curve] |  |
| CSC1=NSC2=NC(=O)/C(=C\c3coc4ccccc4c3=O)C(=N)N12 | inconclusive: 28.2 µM [inhibitor, single point] |  |
| N#C/C=C/N1CCN(C(=O)c2ccco2)CC1 | inconclusive: 11.2 µM [inhibitor, partial curve, poor fit] |  |
| CN(Cc1nccs1)C(=O)c1ccc2nc(Cc3ccccc3F)oc2c1 |  | inactive: 2.03% |
| CC1(C(=O)NCc2ccccc2)Cc2c(-c3ccc(C(N)=O)cc3)ccnc2O1 (stereo unspecified) | inconclusive: 5.62 µM [inhibitor, partial curve] |  |
| Cc1c2ccccc2nc2c(F)c(NC(C)C)c(F)c(F)c12 | inconclusive: 17.8 µM [inhibitor, partial curve, poor fit] |  |
| CN(Cc1ccco1)Cc1ccc(O)c2ncccc12 | inconclusive: 35.5 µM [inhibitor, single point] |  |
| CCN(CC)c1ccc(/C=C/c2cc(-c3ccccc3)c3ccccc3n2)cc1 | inconclusive: 3.98 µM [inhibitor, full curve, poor fit] |  |
| Cc1ccccc1C(=O)OC1OC(=O)C(Cl)=C1Nc1ccccc1 (stereo unspecified) | inconclusive: 35.5 µM [inhibitor, single point] |  |
| CCN(CC)c1ccc(/C=C2\SC(N)=NC2=O)cc1 | active: 8.91 µM |  |
| CCOC(=O)C1CCN(CC(=O)Nc2ccc(OC)c(Cl)c2)CC1 |  | inactive: 0.751% |
| O=C(CCl)NCCN1C(=O)S/C(=C\c2cccnc2)C1=O | inconclusive: 35.5 µM [inhibitor, single point] |  |
| O=C(NCC(c1cccs1)N1CCOCC1)c1ccc(Cl)nc1 (stereo unspecified) | inconclusive: 20 µM [inhibitor, single point] |  |
| CCCc1cc(=O)n2nc(N3CCC(C(=O)NCc4ccco4)CC3)sc2n1 |  | inactive: 7.93% |
| COc1ccc(/C=N/NC(=O)c2cccnc2)cc1COc1ccc(NC(C)=O)cc1 | inconclusive: 17.8 µM [inhibitor, partial curve, poor fit] |  |
| COc1ccc(Cl)cc1NC(=O)Cn1c(=O)n(CCC(=O)NCc2ccc3c(c2)OCO3)c(=O)c2ccccc21 | inconclusive: 31.6 µM [inhibitor, single point] |  |
| Cc1ccc(C(C[N+](=O)[O-])c2c(N)n(C)c(=O)n(C)c2=O)cc1 (stereo unspecified) | inconclusive: 31.6 µM [inhibitor, single point] |  |
| CC(C)CCN1C(=O)c2cccc3c(N)ccc(c23)C1=O | inconclusive: 5.62 µM [inhibitor, single point] |  |
| C=CCN1C(=O)/C(=C/c2ccc(O)c(OC)c2)S/C1=N/c1nccs1 | inconclusive: 3.16 µM [inhibitor, single point] |  |
| Cc1ccccc1OCC(=O)NC(=S)Nc1ccc2c3c(cccc13)CC2 | inconclusive: 22.4 µM [inhibitor, partial curve, poor fit] |  |

| Compound | Potency | activity, negative = active |
| --- | --- | --- |
| N#Cc1c(-c2ccccc2)c(-c2ccccc2)n[nH]c1=O | inconclusive: 2.82 µM [inhibitor, full curve, poor fit] |  |
| CN1CCc2nc3sc(C(=O)NCc4ccccc4)c(N)c3cc2C1 |  | inactive: -11.1% |
| CCCCOC(=O)CNc1nnc(SCC(=O)OCC)[nH]c1=O | inconclusive: 35.5 µM [inhibitor, single point] |  |
| Cc1cc(=O)oc2cc(OCC(=O)N3c4ccccc4CC3C)ccc12 (stereo unspecified) | active: 3.98 µM |  |
| O=C(Nc1ccc2oc(-c3cccnc3)nc2c1)c1ccc(-c2ccc(OC(F)(F)F)cc2)o1 |  | inactive: 2.5% |
| C=CCNC(=O)c1onc(CCl)c1C(=O)OC | inconclusive: 35.5 µM [inhibitor, single point] |  |
| Nn1c(SCC(=O)Nc2cccnc2Cl)nnc1-c1ccccc1 |  | inactive: -8.83% |
| Cc1[nH][nH]c(=O)c1C(c1ccc(-c2ccc(Cl)c(Cl)c2)o1)c1c(C)[nH][nH]c1=O | inconclusive: 20 µM [inhibitor, single point] |  |
| Nc1c(C(=O)c2cccs2)sc2nsc(SCCN3CCCCC3)c12 | inconclusive: 3.16 µM [inhibitor, full curve, poor fit] |  |
| O=C(CSc1ccc(-c2ccco2)nn1)c1cccc([N+](=O)[O-])c1 |  | inactive: -2.59% |
| C=CCN1C(=O)C(O)(CC(=O)c2ccco2)c2cc(Br)ccc21 (stereo unspecified) | inconclusive: 28.2 µM [inhibitor, single point] |  |
| COc1cc(CNc2ccc(N3CCCC3)cc2)ccc1OCc1ccccc1 |  | inactive: 0.27% |
| Cc1ccc(/C=C/c2ccc(N(C)C)cc2)[n+](C)c1 | active: 11.2 µM |  |
| O=c1oc2ccccc2c(Nc2ccc(O)cc2)c1[N+](=O)[O-] | inconclusive: 35.5 µM [inhibitor, single point] |  |
| Cn1nccc1C(=O)N1CCCC(C(=O)c2cccc3ccccc23)C1 (stereo unspecified) | inconclusive: 1.26 µM [inhibitor, full curve, poor fit] |  |
| COc1ccc(C(=O)/C=C/C(=O)N(CC(=O)NC2CCCCC2)Cc2cccs2)c(O)c1 | inconclusive: 31.6 µM [inhibitor, single point] |  |
| CCCCC(Sc1nc2cc3c(cc2c(=O)n1CCCC(=O)NCc1ccc(OC)cc1)OCO3)C(=O)OCC (stereo unspecified) | inconclusive: 2.82 µM [inhibitor, partial curve, poor fit] |  |
| COc1cccc(-c2ccc3c(N)c(C(=O)c4ccc(Cl)cc4)sc3n2)c1 | active: 10 µM |  |
| COc1cc2c(cc1OC)CN(C(=O)/C=C/c1ccc([N+](=O)[O-])cc1)CC2 |  | inactive: -0.636% |
| CNC(=S)N/N=C/c1cn(CCOc2ccccc2OC)c2ccccc12 |  | inactive: -2.79% |
| Cc1nccn1C(c1ccccc1)c1ccccc1 |  | inactive: -2.5% |
| CC(=O)N1CCc2c(sc(NC(=O)c3ccc([N+](=O)[O-])o3)c2C(N)=O)C1 | inconclusive: 3.98 µM [inhibitor, full curve, poor fit] |  |
